# From the supplement of paper PMC8728848
# The other results are listed elsewhere or left out.
# B1: XCL (Xerocomus chrysenteron) (protein)
# chain: MSYSITLRVYQTNRDRGYFSIVEKTVWHFANGGTWSEANGAHTLTQGGSGTSGVLRFLSTKGERITVAVGVHNYKRWCDVVTGLKPDETALVINPQYYNNGGRDYVREKQLAEYSVTSAIGTKVEVVYTVAEGNNLEANVIFS
# Key:
# Experiment in all cases: glycan array binding signal (z-score within array); higher = stronger binding
# Settings in all cases: glycan notation: IUPAC condensed, linker removed
# [1] = target: Fuc(a1-2)Gal(b1-4)[Fuc(a1-3)]GlcNAc
# How it was run: (§1)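 Glycan array binding is given as a within-array Z-score, which can be read as non-binding when negative. The arrays, 3228 of them, came from the Consortium for Functional Glycomics database and were retained only where the protein sequence was available. Z-scores were averaged across arrays of the same protein sequence at different concentrations or buffers and across linkers.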
# [2] = target: Fuc(a1-2)Gal(b1-4)[Fuc(a1-3)]GlcNAc(b1-2)Man(a1-3)[Fuc(a1-2)Gal(b1-4)[Fuc(a1-3)]GlcNAc(b1-2)Man(a1-6)]Man(b1-4)GlcNAc(b1-4)GlcNAc
# How it was run: as §1
# [3] = target: Fuc(a1-2)Gal(b1-4)[Fuc(a1-3)]GlcNAc(b1-2)[Fuc(a1-2)Gal(b1-4)[Fuc(a1-3)]GlcNAc(b1-4)]Man(a1-3)[Fuc(a1-2)Gal(b1-4)[Fuc(a1-3)]GlcNAc(b1-2)Man(a1-6)]Man(b1-4)GlcNAc(b1-4)GlcNAc
# How it was run: as §1
# [4] = target: Fuc(a1-2)Gal(b1-4)[Fuc(a1-3)]GlcNAc(b1-3)Gal(b1-4)[Fuc(a1-3)]GlcNAc
# How it was run: as §1
# [5] = target: Fuc(a1-2)Gal(b1-4)[Fuc(a1-3)]GlcNAc(b1-3)Gal(b1-4)[Fuc(a1-3)]GlcNAc(b1-3)Gal(b1-4)[Fuc(a1-3)]GlcNAc
# How it was run: as §1
# [6] = target: Fuc(a1-2)Gal(b1-4)[Fuc(a1-3)]GlcNAc(b1-3)GalNAc
# How it was run: as §1
# [7] = target: Fuc(a1-2)Gal6S(b1-4)Glc
# How it was run: as §1
# [8] = target: Fuc(a1-2)Gal6S(b1-4)Glc6S
# How it was run: as §1
# [9] = target: Fuc(a1-2)Gal6S(b1-4)GlcNAc
# How it was run: as §1
# [10] = target: Fuc(a1-2)[Gal(a1-3)]Gal
# How it was run: as §1
# [11] = target: Fuc(a1-2)[Gal(a1-3)]Gal(b1-3)GalNAc
# How it was run: as §1
# [12] = target: Fuc(a1-2)[Gal(a1-3)]Gal(b1-3)GlcNAc
# How it was run: as §1
# [13] = target: Fuc(a1-2)[Gal(a1-3)]Gal(b1-3)GlcNAc(b1-2)Man(a1-3)[Fuc(a1-2)[Gal(a1-3)]Gal(b1-3)GlcNAc(b1-2)Man(a1-6)]Man(b1-4)GlcNAc(b1-4)GlcNAc
# How it was run: as §1
# [14] = target: Fuc(a1-2)[Gal(a1-3)]Gal(b1-3)GlcNAc(b1-2)Man(a1-3)[Fuc(a1-2)[Gal(a1-3)]Gal(b1-3)GlcNAc(b1-2)Man(a1-6)]Man(b1-4)GlcNAc(b1-4)[Fuc(a1-6)]GlcNAc
# How it was run: as §1
# [15] = target: Fuc(a1-2)[Gal(a1-3)]Gal(b1-3)GlcNAc(b1-3)GalNAc
# How it was run: as §1
# [16] = target: Fuc(a1-2)[Gal(a1-3)]Gal(b1-4)Glc
# How it was run: as §1
# [17] = target: Fuc(a1-2)[Gal(a1-3)]Gal(b1-4)GlcNAc
# How it was run: as §1
# [18] = target: Fuc(a1-2)[Gal(a1-3)]Gal(b1-4)GlcNAc(b1-2)Man(a1-3)[Fuc(a1-2)[Gal(a1-3)]Gal(b1-4)GlcNAc(b1-2)Man(a1-6)]Man(b1-4)GlcNAc(b1-4)GlcNAc
# How it was run: as §1
# [19] = target: Fuc(a1-2)[Gal(a1-3)]Gal(b1-4)GlcNAc(b1-2)Man(a1-3)[Fuc(a1-2)[Gal(a1-3)]Gal(b1-4)GlcNAc(b1-2)Man(a1-6)]Man(b1-4)GlcNAc(b1-4)[Fuc(a1-6)]GlcNAc
# How it was run: as §1
# [20] = target: Fuc(a1-2)[Gal(a1-3)]Gal(b1-4)GlcNAc(b1-3)GalNAc
# How it was run: as §1
# [21] = target: Fuc(a1-2)[Gal(a1-3)]Gal(b1-4)[Fuc(a1-3)]Glc
# How it was run: as §1
# [22] = target: Fuc(a1-2)[Gal(a1-3)]Gal(b1-4)[Fuc(a1-3)]GlcNAc
# How it was run: as §1
# [23] = target: Fuc(a1-2)[Gal(a1-3)]Gal(b1-4)[Fuc(a1-3)]GlcNAc(b1-3)GalNAc
# How it was run: as §1
# [24] = target: Fuc(a1-2)[Gal(a1-4)]Gal(b1-4)GlcNAc
# How it was run: as §1
# [25] = target: Fuc(a1-2)[GalNAc(a1-3)]Gal
# How it was run: as §1
# [26] = target: Fuc(a1-2)[GalNAc(a1-3)]Gal(b1-3)GalNAc(a1-3)[Fuc(a1-2)]Gal(b1-4)GlcNAc
# How it was run: as §1
# [27] = target: Fuc(a1-2)[GalNAc(a1-3)]Gal(b1-3)GlcNAc
# How it was run: as §1
# [28] = target: Fuc(a1-2)[GalNAc(a1-3)]Gal(b1-3)GlcNAc(b1-2)Man(a1-3)[Fuc(a1-2)[GalNAc(a1-3)]Gal(b1-3)GlcNAc(b1-2)Man(a1-6)]Man(b1-4)GlcNAc(b1-4)GlcNAc
# How it was run: as §1
# [29] = target: Fuc(a1-2)[GalNAc(a1-3)]Gal(b1-3)GlcNAc(b1-2)Man(a1-3)[Fuc(a1-2)[GalNAc(a1-3)]Gal(b1-3)GlcNAc(b1-2)Man(a1-6)]Man(b1-4)GlcNAc(b1-4)[Fuc(a1-6)]GlcNAc
# How it was run: as §1
# [30] = target: Fuc(a1-2)[GalNAc(a1-3)]Gal(b1-3)GlcNAc(b1-3)GalNAc
# How it was run: as §1
binder,measurement,setting,value
B1,glycan array binding signal (z-score),[1],-0.225
same,glycan array binding signal (z-score),[2],-0.25
same,glycan array binding signal (z-score),[3],-0.173
same,glycan array binding signal (z-score),[4],-0.293
same,glycan array binding signal (z-score),[5],-0.312
same,glycan array binding signal (z-score),[6],-0.23
same,glycan array binding signal (z-score),[7],-0.321
same,glycan array binding signal (z-score),[8],-0.159
same,glycan array binding signal (z-score),[9],-0.324
same,glycan array binding signal (z-score),[10],-0.323
same,glycan array binding signal (z-score),[11],-0.324
same,glycan array binding signal (z-score),[12],-0.296
same,glycan array binding signal (z-score),[13],-0.311
same,glycan array binding signal (z-score),[14],-0.31
same,glycan array binding signal (z-score),[15],-0.303
same,glycan array binding signal (z-score),[16],-0.324
same,glycan array binding signal (z-score),[17],-0.319
same,glycan array binding signal (z-score),[18],-0.316
same,glycan array binding signal (z-score),[19],-0.317
same,glycan array binding signal (z-score),[20],0.047
same,glycan array binding signal (z-score),[21],-0.32
same,glycan array binding signal (z-score),[22],-0.292
same,glycan array binding signal (z-score),[23],-0.296
same,glycan array binding signal (z-score),[24],-0.325
same,glycan array binding signal (z-score),[25],-0.237
same,glycan array binding signal (z-score),[26],0.356
same,glycan array binding signal (z-score),[27],-0.012
same,glycan array binding signal (z-score),[28],0.401
same,glycan array binding signal (z-score),[29],-0.222
same,glycan array binding signal (z-score),[30],-0.249
